The values below come from the RNAGym collection of RNA variant scans (doi:10.7554/elife.90254).

To fix the notation:
B1: OR4K15 (parent)
chain: GUUAACGGUCAUAGGCCAUGGAAACUAGGAGCACCAUUUCGCUGCCAGUGAAGAAAUGAACAAAGAAAAUCUGGGCCAGGCAGGCAUCAAAAGAAAUAGUCUUGCGCUCAACCAGAAAGUCUGUAAUCAUUUUAAGGGUA

The source gives no read counts; variants with many changes may rest on few reads.

Variants of B1 are the subject of this data set. The data set is described as follows: self-cleavage, relative activity (ratio to wild type); higher = more cleavage; in vitro, sequencing; the parent is a self-cleaving ribozyme.
A24U A111G U120C: the self-cleavage came out at 0.01.
As for U26C C81U C101A U130C, the self-cleavage worked out at 0.02.
Under U26C U38C A90G U122C U132C stands 0.64; under A27G A86G A98G, 0.69; under U26C A27G U37C C46U, 0.47.
Under C25U U49A A86G A91G A117G stands 0.08; under A27G A82U A86G, 0.23; under U26A A33G A111G, 0.02.
Under A27C A52G U132A stands 1.8; under U26C A66G A82G, 0.51.
Regarding U26C A27G A30G U49C, the self-cleavage worked out at 0.66.
Under U26C A91G A96G stands 1; under A27G A64C A95G, 1.71; under U26C A59G U102C U124C A125U, 1.45.
Under C25A U39A A55G U108C U122C stands 0.02.
Under A27G A60G A67G A89C A95G U133C stands 2.34; under A27G A59G A90G A118G U131C U132C, 0.13; under A24U U37C A54G A68G A90G A110G U127C, 0.02.
Turning to A27G A91G A140G, the self-cleavage is 1.12.
Under A27G A47G A67G A68G U103C stands 0.74.
On to U26C A68U U87A, for which the self-cleavage worked out at 1.79.
As for A27G A54G U70C A92G A96C, the self-cleavage is 0.49.
Under U26C A33G A36G stands 1.16; under A24U U103C U133C A135G, 0.96.
On to U26A A33G U43A A54G A111G A129G, for which the self-cleavage stood at 0.
Under A27G A59G U72G U87C A140G stands 0.14; under U26C A47U U132C A135U, 0.84.
As to A27G A30G G73A, the self-cleavage was found to be 0.3.
In the case of A27G A82G U108C, the self-cleavage is 0.01.
Under U26G U43C U103C stands 0.68; under A27G A82G A96G U108A, 0.
Under U26C A92C U108C stands 0.01; under A27C U43C A89G, 1.68; under C25G A95G U120A, 1.4.
Under A27G A63G U70C A90G stands 1.12.
As to U26C G48A A51U A91G A116C U124C U132C, the self-cleavage came out at 0.1.
U26C A68C A89U: the self-cleavage turned out to be 1.47.
On to A27G A30G A33G A63G, for which the self-cleavage amounted to 0.26.
Under U26C U49A A90G U102C stands 2.32.
Under U26C A59G U100C stands 2.58; under A24U U43C A90G A92G, 1.98.
A27G A51G A110G U130C: the self-cleavage is 0.16.
Under A27G A52C A66U A114G stands 0.03; under A27G A63G A111G U124C U127C, 0.
Under C25A A33G A69G U87A U103A A126U stands 0.16; under A27G A56G U72C, 0.36.
For A27G A51G A118G, the self-cleavage stood at 1.27.
Under C25A U108A A118G stands 0; under A27G A30U A62G A64G A82G A95G U130C, 1.28; under C25U A68G U100C, 1.61.
For the variant U26C A55G A63G U70A A82G A117U, the self-cleavage amounted to 0.3.
For the variant A27C U70A A82G U127A, the self-cleavage was 0.59.
In the case of U26C A67C A126G, the self-cleavage is 1.29.
Under A27G A33G A90G stands 0.26; under U26A A51G A55G A91G A118G A126U, 0.33.
Under A27G A68G U102A A118G stands 0.22; under U26C U43A G74A A94G A96U, 0.1; under U26A U38C A89U U127A, 2.96.
Under U26C U43A A63C stands 1.8; under U26C U37C G79A, 0.1; under A27G A36G A86U A90G A118G, 0.93.
For A27G A67G A116G, the self-cleavage was found to be 0.45.
Under U26C A59G U103C stands 0.61; under A27C A55G A69G U97C A134G, 0.73.
Under A24U U39A A64U stands 1.05.
Under U26C A92C A94U stands 2.92; under U26C A90G G93A U108A, 0; under U26A A52G U70C, 0.42.
With A27G A54G A118G, the self-cleavage was 1.42.
Take A27G A62G A95G U102A: the self-cleavage was 1.28.
Under A27G A36C U37C A54G A67U A68G A69G A118G U120A stands 0.16; under U26A U70C A117G, 0.47; under U26C U49C A56G, 1.46.
Turning to A27G A51U U130C, the self-cleavage came to 0.5.
Under U26C A56G U87A A111G U122A A126G stands 0.01; under U26A A56G A86G A95G U108C A118G, 0.
Under U26A A86U A98G stands 0.21.
Under C25G U70C U120C stands 0.3; under A27G A60G A68U U102C, 1.37.
With U26C A66G A67G, the self-cleavage is 1.06.
Under U26C A98G G106A U139C stands 0; under A27C A78G A95G, 0.38.
Under U26C G28A A33G A64G stands 0.44.
Under A27G A60G G75U A126G stands 0.03; under C25U U43G A140G, 2.42.
As to U26C A55G A89U U120C, the self-cleavage came to 0.57.
Under U26A U38C C77U stands 1.42; under U26A A64G U87C U124C, 0.61; under U26C A69U A92G, 1.44.
Under U26C A63G A118G stands 0.92; under A27C A68G U127C, 0.54.
Under A27G A47G U127C U139C stands 0.42; under U26C U38G U130C, 1.24; under A24U U43G A78U U103C, 0.24.
For the variant U26A A68U A82G A116G, the self-cleavage came to 0.11.
With A27G A55G A68G G119A, the self-cleavage is 1.95.
Under U26C U108A A118G stands 0.01.
Consider A27C U87C U102C, for which the self-cleavage was found to be 2.53.
Under U26C A36U A51G A118G stands 1.44.
Under U26C A66G A91U stands 1.02; under U26C A33G U37C A47U A68G U122C U131C, 0.14.
For U26C U39C U120C U139C, the self-cleavage is 0.73.
Under A24U U37C G53A A67G A94G stands 0.89; under U26C A59G A78G, 0.13.
Under U26C A52G A59G U130C stands 0.35.
Consider U26C A66G A111G U131C, for which the self-cleavage is 0.01.
As to A27G A30U A92G, the self-cleavage amounted to 0.
Under A27C G83A A98G C121U stands 1.96; under U26A U43A U127A, 2.22.
Under U26C U72G A114G stands 0.1; under A27G A59G U87C A111U A116G, 0.
As to A27G A62U A64C U132C, the self-cleavage came out at 1.26.
Under A24U U26C A55G stands 1.58; under U26G C76A U122C, 0.12; under A27G A64G A82G C88U A110G, 0.08.
Under A27G A30G U38C U127A stands 1.19; under U26C A64G U102C, 1.07; under C25U U43C U72C A89G U102A, 0.03.
Under A27C U39A U130C stands 0.82.
Take A27G A59G C85U A94G: the self-cleavage is 0.67.
Turning to A27G A67U A68C A91G, the self-cleavage came out at 0.57.
Under U26A G74A A114U stands 0.06.
In the case of A24U U49C A56C, the self-cleavage came out at 0.95.
Under U26G U37C A126G stands 1.58; under U26A A126G U131G, 1.75; under A27G A82U A95U, 0.17.
As for U26C A66G A67G U124C, the self-cleavage amounted to 0.36.
With U26C A56G U70C, the self-cleavage came out at 0.83.
Under A27G A47U A51U A63G U100C stands 1.23; under A24U U38C A91G U139C, 1.3.
Under U26C A54C U87A U132A stands 1.44.
Under U26G A78G A96G U108C stands 0; under U26C U72A U120C, 0.11.
Regarding U26C A66G U103A A118G, the self-cleavage came to 0.35.
Under U26C A27G U38C A94C A111U A118G stands 0.12; under A27G A82G A111G U124C, 0.01; under A27G A51G A91G U97C, 1.1.
Under A27G A33G U108C stands 0.02.
For the variant A27G A92G A126G, the self-cleavage is 1.16.
On to U26C A60G A114U, for which the self-cleavage came to 0.03.
Under U26C U43A A54G A59G U139G A140U stands 0.35.
Under U26C G58U A94G A95G stands 1.4.
Under U26G A56G U108A stands 0.06.
In the case of A27C U38C U132C, the self-cleavage was 1.93.
Under A27C U43A A51G A66G stands 1.3.
Under U26C A36U A89C stands 0.78.
In the case of C25U A67G A82G U127A, the self-cleavage was determined as 1.02.
Turning to U26C U43C A96G, the self-cleavage was determined as 1.12.
In the case of U26A A33G U37C U108A, the self-cleavage stood at 0.03.
With A24U U49C A52G, the self-cleavage was found to be 1.15.
Under A24U C35A A59G stands 1.03; under A27G A33G A91G A134G, 0.16; under U26A U124C U130C, 0.45.
As for U26A A63C A68G U122A, the self-cleavage amounted to 1.17.
Under A27G A33G U37C A82G stands 0.14; under C25G U127A U131C, 2.31.
In the case of A27G A51C A78G, the self-cleavage came to 0.49.
Under A27G A66G A126G stands 1.26; under U26A U49C A56G, 1.12; under A27G A30U U122G, 2.29.
Under U26C A51G A66U U100C stands 1; under U26C U57C A64G C85U, 0.57; under U26C A94G U100C, 2.31.
A24U U39C A66G: the self-cleavage turned out to be 0.75.
Under A27G A33C A110G stands 0.23; under A24U A111G U122C, 0.01; under A27G A33G A66G U131C, 0.31.
